PubChem BioAssay AID686978 (National Center for Advancing Translational Sciences (NCATS), 2013)
Hit rate of the full screen: of about 420,000 compounds, about 64,000 (15%) were called active. This list was built around the results that the source calls inconclusive (neither active nor inactive); the mix of calls is not that of the screen. Calls come from the whole dose curve; as a rule, active = well fitted inhibition curve with a large enough effect; inconclusive = small, poorly fitted or top-dose-only effect; inactive = flat fitted curve, though single readings scatter. Potencies of inconclusive entries are left out as doubtful fits.

Test: qHTS for Inhibitors of human tyrosyl-DNA phosphodiesterase 1 (TDP1): qHTS in cells in absence of CPT; note: nearly all actives have a fitted effect of over 55% in size
Settings: DT40 Tdp1-/- hTDP1 cells, no CPT, ATP luminescence, 48 h; activity change, negative = growth inhibition: at 46.2 µM (top of the series) unless noted
Procedure, shortened: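 A cellular qHTS used chicken DT40 cells lacking endogenous Tdp1 but carrying stably transfected human TDP1. Compounds were applied without camptothecin, and cell growth kinetics were judged by ATP-dependent luminescence after ≥48 hr.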
% is set by controls: 0 for no effect and ±100 for the full control effect; potency is the fitted concentration of half-maximal effect; tags give direction and shape of the fitted curve.

SMILES | Potency | activity change, negative = growth inhibition
CCCCN(C)S(=O)(=O)c1cc(Br)cc2c1N(C(=O)C1CC1)CC2 | active: 3.66 µM | –
Clc1cccc(Cc2c(C3CCCCC3)nc3c4ccccc4ccn23)c1 | active: 16.4 µM | –
Cn1c(-c2ccc(Cl)cc2)cnc1NCc1cc2c(cc1[N+](=O)[O-])OCO2 | inconclusive [inhibitor, single point] | –
Cc1cccc(CCNC(=O)C2CCN(S(=O)(=O)c3cccc4nsnc34)CC2)c1 | inconclusive [inhibitor, single point] | –
COc1ccc(CCNC(=O)Cn2c(=O)cc(C(F)(F)F)c3c(C)nn(C)c32)cc1OC | inconclusive [inhibitor, single point] | –
CCOc1ccc(NC(=S)NC(C)CCc2ccccc2)cc1 (stereo not drawn) | – | inactive: 2.87%
CCN(CC)C(=O)Cn1cc(/C=C(\C#N)C(=O)NC2CC2)c2ccccc21 | inconclusive [inhibitor, single point] | –
Cc1ccc(C(=O)OCC(=O)Nc2cc(C(C)(C)C)no2)c(C)c1 | inconclusive [inhibitor, single point] | –
CCCCn1c(N)c(N2CCOCC2)c(=O)n(CC(=O)NCCc2ccccc2)c1=O | – | inactive: 28.4%
COCCCNC(=S)NC1CC2CCC(C1)N2Cc1ccccc1 (stereo not drawn) | – | inconclusive: -30.4% [inhibitor]
CC(C)Cn1c(N)c(C(=O)COC(=O)c2cc(F)cc(F)c2)c(=O)n(C)c1=O | inconclusive [inhibitor, partial curve, poor fit] | –
CC(=O)NCC(=O)N1CCCC(C(=O)c2ccc(Oc3ccccc3)cc2)C1 (stereo not drawn) | inconclusive [inhibitor, partial curve] | –
CC(=O)N1CCOc2ccc(S(=O)(=O)N3CCN(c4cc(C)ccc4C)CC3)cc21 | – | inactive: -10.1%
COc1ccc(-c2noc(N(C)CC(=O)Nc3cccc(C(F)(F)F)c3)n2)cc1 | inconclusive [inhibitor, single point] | –
CCOc1ccc(OCCCC(=O)N(C)CC(=O)Nc2ccccc2Br)cc1 | inconclusive [inhibitor, single point] | –
CCCCC1(CC(=O)OCC)C(=O)N(c2ccccc2)N(c2ccccc2)C1=O | inconclusive [inhibitor, single point] | –
COc1cccc(C2CC(c3ccccc3C)n3nc(N)nc3N2)c1 (stereo not drawn) | – | inactive: -0.895%
Cc1cc(NC(=O)CCC(=O)N(CC2CCCO2)C(C(=O)NC2CCCC2)c2ccccc2C)no1 (stereo not drawn) | inconclusive [inhibitor, single point] | –
Cc1ccc(NC(=O)c2cc(NC(=O)c3ccco3)ccc2N2CCCCC2)cc1 | inconclusive [inhibitor, single point] | –
COc1ccccc1N1CCN(/N=C/c2ccccc2C(=O)O)CC1 | – | inactive: 28.8%
CC(=O)Oc1cc(-c2coc3cc(OC(C)=O)c(OC(C)=O)c(OC(C)=O)c3c2=O)cc(OC(C)=O)c1OC(C)=O | inconclusive [inhibitor, single point] | –
COC(=O)Cc1cc(=O)[nH]c(/N=C(\N)Nc2ccc(C)cc2C)n1 | inconclusive [inhibitor, single point] | –

SMILES | Potency | activity change, negative = growth inhibition
COc1ccc(CN(C)S(=O)(=O)c2nnc(NC(=O)C(C)C)s2)cc1OC | active: 10.3 µM | –
COc1ccc(NC(=O)CSc2nnc3ccc(-c4ccccn4)nn23)cc1OC | – | inactive: -10.3%
COC(=O)[C@@]12C[C@@H](CC(=O)N3CCN(C(=O)c4ccco4)CC3)C(=O)N(Cc3ccco3)C1=CCC(C)(C)C2 | inconclusive [inhibitor, single point] | –
Cc1ccc(C)c(CSC2=NC(C)(C)Nc3ccccc32)c1 | inconclusive [inhibitor, single point] | –
Cc1cc2c(=O)n(Cc3ccco3)c(SCC(=O)N3CCCc4ccccc43)nc2s1 | inconclusive [inhibitor, single point] | –
O=C(CCCn1c(=O)oc2ccccc21)N1CCc2ccccc2C1 | – | inactive: -22.9%
CCOC(=O)c1sc2nc(C)n(CC(=O)Nc3cccc(Cl)c3)c(=O)c2c1C | – | inactive: -11.4%
CC1Cc2ccccc2N1S(=O)(=O)c1cccc(C(=O)NCc2ccccn2)c1 (stereo not drawn) | inconclusive [inhibitor, partial curve] | –
CC(C)(C)c1ccc(C(=O)N2CCC2(C)C(=O)NCC(F)(F)F)cc1 (stereo not drawn) | inconclusive [inhibitor, single point] | –
COC(=O)c1nc(-c2ccc(C)cc2)[nH]c1C(C)(C)C | – | inactive: -26.3%
COc1cc(/C=C(\C#N)C(=O)NCCc2ccccc2)cc(OC)c1O | inconclusive [inhibitor, single point] | –
COc1ccc(CNC(=O)c2cnn3c(C(F)F)cc(C)nc23)cc1OC | inconclusive [inhibitor, partial curve] | –
CN(C)c1ccc(/C=N\NC(=O)c2ccc(Cn3cc(Cl)cn3)cc2)cc1 | active: 16.4 µM | –
Cc1cccc(C)c1OCc1nnc(SCC(=O)Nc2cccc(C(=O)N3CCOCC3)c2)n1C | inconclusive [inhibitor, single point] | –
Cc1ccc(S(=O)(=O)N2CCOCC2)cc1NC(=O)COC(=O)C1(C)CC1(Cl)Cl (stereo not drawn) | inconclusive [inhibitor, single point] | –
CCOC(=O)c1ccc(NC(=O)c2nc[nH]c2C(=O)NCCCCCNC(=O)OC(C)(C)C)cc1 | active: 18.4 µM | –
CN1CCN(C/C(=C2/N=C(c3ccccc3)OC2=O)N(C)C)CC1 | inconclusive [inhibitor, single point] | –
Cc1ccc(N(CC(=O)NC2CCCCC2)C(=O)c2ccc(C)s2)cc1 | – | inconclusive: -32.3% [inhibitor]
COc1ccccc1NC(=O)C1=C(C)Nc2nc(SCc3ccccc3F)nn2C1c1cccnc1 (stereo not drawn) | active: 10.3 µM | –
COc1cc(OC)cc(C(=O)NC(C(=O)O)C23CC4CC(CC(C4)C2)C3)c1 (stereo not drawn) | – | inactive: -18.7%
CCN(C(=O)c1c(C)cc(=O)oc1C)c1ccc2c(c1)OCO2 | – | inactive: -15.9%
